Test results taken from paper PMC7363125.
These are yes or no findings as the source states them, for the method shown. In cells and extracts the contact can be indirect. Some results given as binding are weak or reduced against the parent protein; the word gives no strength. Tags and fused reporters may be left off the sequences shown.

Columns and labels:
Assay in all cases: pull-down; 5 ug GST-PLEKHA7 WW bait (E. coli) coupled to GSH-Sepharose beads, washed, incubated 1 h at 4 °C with normalized HEK cell lysate holding PDZD11-HA or CFP-HA; immunoblot with anti-HA; only the target purified
[1] = target: T1, GST-PLEKHA7 WW1 + WW2 domain (1-162) L32A (human) (UniProt Q6IQ23)
T1 sequence: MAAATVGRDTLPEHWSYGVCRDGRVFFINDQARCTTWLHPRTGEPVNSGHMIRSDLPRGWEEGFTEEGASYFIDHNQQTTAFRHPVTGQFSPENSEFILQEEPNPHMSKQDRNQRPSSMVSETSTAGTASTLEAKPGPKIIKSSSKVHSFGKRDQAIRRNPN

[2] = target: T2, GST-PLEKHA7 WW1 + WW2 domain (1-162) D22A (human) (UniProt Q6IQ23)
T2 sequence: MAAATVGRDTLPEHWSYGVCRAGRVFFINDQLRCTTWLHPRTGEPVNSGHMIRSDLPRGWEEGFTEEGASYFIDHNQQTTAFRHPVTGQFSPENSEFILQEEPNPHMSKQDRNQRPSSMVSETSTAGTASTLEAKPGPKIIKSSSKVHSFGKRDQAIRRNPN

[3] = target: T3, GST-PLEKHA7 WW1 domain (residues 1-56) Y17A (human) (UniProt Q6IQ23)
T3 sequence: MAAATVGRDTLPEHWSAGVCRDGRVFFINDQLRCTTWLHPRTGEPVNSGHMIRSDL

[4] = target: T4, GST-PLEKHA7 WW1 + WW2 domain (1-162) D30A + D74A (human) (UniProt Q6IQ23)
T4 sequence: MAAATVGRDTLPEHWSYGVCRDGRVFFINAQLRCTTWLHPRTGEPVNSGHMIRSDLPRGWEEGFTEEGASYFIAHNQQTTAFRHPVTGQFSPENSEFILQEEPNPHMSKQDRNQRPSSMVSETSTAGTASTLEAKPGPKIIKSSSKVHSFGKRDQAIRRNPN

[5] = target: T5, GST-PLEKHA7 WW1 + WW2 domain (1-162), mutation within the WW2 domain at position 73 (human) (UniProt Q6IQ23)
T5 sequence: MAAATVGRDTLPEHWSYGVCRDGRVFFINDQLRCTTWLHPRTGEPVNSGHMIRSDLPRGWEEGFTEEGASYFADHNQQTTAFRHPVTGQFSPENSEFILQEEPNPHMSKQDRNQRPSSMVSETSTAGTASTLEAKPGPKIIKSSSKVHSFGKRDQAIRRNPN

[6] = target: T6, GST-PLEKHA7 WW1 domain (residues 1-56) D22A (human) (UniProt Q6IQ23)
T6 sequence: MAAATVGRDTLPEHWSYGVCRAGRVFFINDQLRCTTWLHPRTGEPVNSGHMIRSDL

[7] = target: T7, GST-PLEKHA7 WW1 + WW2 domain (1-162) D30A (human) (UniProt Q6IQ23)
T7 sequence: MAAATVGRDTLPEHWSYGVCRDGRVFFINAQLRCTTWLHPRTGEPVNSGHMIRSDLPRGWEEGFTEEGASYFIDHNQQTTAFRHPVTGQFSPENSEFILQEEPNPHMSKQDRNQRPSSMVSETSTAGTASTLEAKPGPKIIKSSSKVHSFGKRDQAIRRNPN

[8] = target: T8, GST-PLEKHA7 WW1 domain (residues 1-56) V19A (human) (UniProt Q6IQ23)
T8 sequence: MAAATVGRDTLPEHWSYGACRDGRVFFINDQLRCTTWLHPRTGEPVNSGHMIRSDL

[9] = target: T9, GST-PLEKHA7 (human) WW1 + WW2 domain (1-162), WT (human) (UniProt Q6IQ23)
T9 sequence: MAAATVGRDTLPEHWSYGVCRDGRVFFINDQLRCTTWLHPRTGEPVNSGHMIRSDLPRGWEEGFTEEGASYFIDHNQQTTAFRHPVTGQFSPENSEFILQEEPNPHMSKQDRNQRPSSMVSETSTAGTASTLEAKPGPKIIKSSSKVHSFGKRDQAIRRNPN

[10] = target: T10, GST-PLEKHA7 WW1 + WW2 domain (1-162), mutation within the WW2 domain at position 59 (human) (UniProt Q6IQ23)
T10 sequence: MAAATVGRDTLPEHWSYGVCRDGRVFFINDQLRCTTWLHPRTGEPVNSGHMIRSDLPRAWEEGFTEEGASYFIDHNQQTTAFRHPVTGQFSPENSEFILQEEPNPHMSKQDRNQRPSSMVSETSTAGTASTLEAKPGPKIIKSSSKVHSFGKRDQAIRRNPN

binding [1]: binds
binding [2]: binds
binding [3]: binds
binding [4]: binds
binding [5]: binds
binding [6]: binds
binding [7]: binds
binding [8]: no binding
binding [9]: binds
binding [10]: binds
B1: PDZD11-HA (human) full-length (protein, UniProt Q5EBL8 1-140)
chain: MDSRIPYDDYPVVFLPAYENPPAWIPPHERVHHPDYNNELTQFLPRTITLKKPPGAQLGFNIRGGKASQLGIFISKVIPDSDAHRAGLQEGDQVLAVNDVDFQDIEHSKAVEILKTAREISMRVRFFPYNYHRQKERTVH
